The other results are listed elsewhere or left out. The energies were worked out here from pooled read counts, against the library average; single values are noisy.
biological target: T1, Pho4 (S. cerevisiae) (UniProt P07270); assay: relative binding free energy (BET-seq); higher = weaker binding; conditions: reference: library average
T1 sequence: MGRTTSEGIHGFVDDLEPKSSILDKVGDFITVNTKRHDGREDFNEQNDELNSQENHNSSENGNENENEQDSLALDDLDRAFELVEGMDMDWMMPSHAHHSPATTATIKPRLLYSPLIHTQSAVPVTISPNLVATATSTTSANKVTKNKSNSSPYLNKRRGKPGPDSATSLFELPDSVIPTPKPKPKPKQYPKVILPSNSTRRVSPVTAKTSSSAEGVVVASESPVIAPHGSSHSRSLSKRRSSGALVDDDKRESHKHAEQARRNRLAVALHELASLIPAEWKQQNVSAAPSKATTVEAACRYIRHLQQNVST

Sequence	relative binding free energy
CCGGGCACGTGGGAAG	-0.08 kcal/mol
GGGGGCACGTGGCGGC	-0.19 kcal/mol
ATCTGCACGTGCGGTA	0.04 kcal/mol
GGTTACACGTGGGATT	0.22 kcal/mol
AGTGACACGTGATGGG	0.24 kcal/mol
ATTCTCACGTGTTTGA	0.03 kcal/mol
TGTTGCACGTGCGTTC	-0.09 kcal/mol
CGAGTCACGTGTATTT	0.16 kcal/mol
TGTTCCACGTGGGTAT	-0.08 kcal/mol
TTCTTCACGTGATTTT	0.23 kcal/mol
TGTTGCACGTGTTTTC	0.03 kcal/mol
TGTGCCACGTGGATTT	-0.06 kcal/mol
TTGGTCACGTGCTTTC	0.17 kcal/mol
ACTGTCACGTGTGAGT	0.43 kcal/mol
GTAAACACGTGGGCTT	-0.1 kcal/mol
TCTTTCACGTGAATGG	0.43 kcal/mol
CGCATCACGTGTTGGT	0.09 kcal/mol
TGGGCCACGTGGGGGT	-0.19 kcal/mol
GGGCACACGTGTAGGG	0.05 kcal/mol
GTTGTCACGTGGCTTC	0.02 kcal/mol
TTGGGCACGTGCTAGG	-0.13 kcal/mol
TGGATCACGTGGAGAT	0.01 kcal/mol
GTGTTCACGTGATTTT	0.43 kcal/mol
TTGGTCACGTGCAGAT	-0.01 kcal/mol
ACTTTCACGTGTAAGG	0.21 kcal/mol

Sequence	relative binding free energy
ACTGTCACGTGACTGG	0.34 kcal/mol
TATAACACGTGATGTT	0.1 kcal/mol
CGAGTCACGTGTTGTG	-0.04 kcal/mol
AGTAACACGTGAAGTG	0.11 kcal/mol
GGATGCACGTGTGGAG	0.05 kcal/mol
TTGCCCACGTGGGTAG	-0.15 kcal/mol
GGAATCACGTGGGCGG	0.05 kcal/mol
AGTTTCACGTGCTGGG	0.26 kcal/mol
GGGGTCACGTGGAGCG	0.16 kcal/mol
GAATACACGTGGGAGT	0.12 kcal/mol
TTCATCACGTGTTTAT	0.13 kcal/mol
GAGTACACGTGTTTTA	0.1 kcal/mol
TGCTTCACGTGGATGA	0.33 kcal/mol
TTGTGCACGTGAGTCA	0.07 kcal/mol
ATCGCCACGTGAGGGG	0.19 kcal/mol
TAAAGCACGTGTGGGG	-0.05 kcal/mol
AGCTGCACGTGGAGGA	-0.02 kcal/mol
ATAGGCACGTGGGCAG	-0.23 kcal/mol
GGTTACACGTGGTGTT	0.1 kcal/mol
TCATGCACGTGAGCGT	0.25 kcal/mol
GTTGACACGTGGGATA	-0.11 kcal/mol
TGTGGCACGTGAACTT	0.14 kcal/mol
CCTTGCACGTGTGTGG	0.02 kcal/mol
TCGGGCACGTGGTTCT	-0.11 kcal/mol
ATTGGCACGTGCTAAT	-0.03 kcal/mol

Sequence	relative binding free energy
TGGGCCACGTGGCCGT	-0.09 kcal/mol
CAGGGCACGTGGGCGT	-0.34 kcal/mol
CGTTTCACGTGTGTTC	0.23 kcal/mol
AATGGCACGTGTAATA	0.01 kcal/mol
GTAGGCACGTGAATTG	0.11 kcal/mol
AGGGTCACGTGGAATA	0.18 kcal/mol
GCGGCCACGTGTGGGC	0.1 kcal/mol
CTGAACACGTGGTGGG	-0.06 kcal/mol
AATTTCACGTGTTAGG	0.25 kcal/mol
AAGGTCACGTGGAGGT	0.04 kcal/mol
TCGGGCACGTGTAGGT	-0.08 kcal/mol
ACGGGCACGTGCTGTT	-0.14 kcal/mol
GCGGCCACGTGTGTGG	0.02 kcal/mol
TGGGGCACGTGATTTG	0.06 kcal/mol
TAATCCACGTGGTGGT	-0.07 kcal/mol
TGATTCACGTGTCGGA	0.24 kcal/mol
TTGGGCACGTGAATTA	0.08 kcal/mol
TGTTGCACGTGTGATT	0.11 kcal/mol
CGGTACACGTGATTGT	0.01 kcal/mol
TTAATCACGTGGAATT	0.17 kcal/mol
ATCTACACGTGGGGTA	0.01 kcal/mol
GGTACCACGTGGAGGA	0 kcal/mol
GTGTGCACGTGTATGG	0.04 kcal/mol
CAGGTCACGTGGTGTG	0.07 kcal/mol
ATGTACACGTGGTGGA	-0.05 kcal/mol

Sequence	relative binding free energy
TATAACACGTGTAGTT	0.11 kcal/mol
ATGGTCACGTGTCTGT	0.14 kcal/mol
TGGGTCACGTGGCGGG	0.1 kcal/mol
GTGCTCACGTGTGGTG	0.3 kcal/mol
TTAATCACGTGCATGG	0.12 kcal/mol
TGAGTCACGTGGTAGC	0.04 kcal/mol
GAGTACACGTGAAGGG	0.21 kcal/mol
TAAGTCACGTGCGAGT	0.08 kcal/mol
TTTGTCACGTGGTCGC	-0.12 kcal/mol
GTGTTCACGTGATGAG	0.37 kcal/mol
GAAGTCACGTGTAGGT	0.31 kcal/mol
GTTTACACGTGTTGGA	0.16 kcal/mol
GTTCTCACGTGTTATG	0.26 kcal/mol
AGAGACACGTGAGAGG	0.32 kcal/mol
AGAAGCACGTGTAGTG	-0.03 kcal/mol
ATGCCCACGTGGTTGG	-0.01 kcal/mol
AGGGACACGTGTTTAG	0.07 kcal/mol
GGATTCACGTGGAAGT	0.31 kcal/mol
GGGCTCACGTGGAAAG	0.48 kcal/mol
GGTTACACGTGGGAAG	0.16 kcal/mol
CTTATCACGTGTGGAT	0.1 kcal/mol
GGTCACACGTGTTGAT	0.26 kcal/mol
ATGGCCACGTGATATT	0.16 kcal/mol
GTTTTCACGTGGTCTA	0.23 kcal/mol
TTTCTCACGTGTAAGT	0.22 kcal/mol

Sequence	relative binding free energy
CGGGGCACGTGGGGTG	-0.35 kcal/mol
TATGGCACGTGTGTTA	0 kcal/mol
TGGGGCACGTGCAGAA	-0.18 kcal/mol
TGAGACACGTGACGGT	0.18 kcal/mol
ATGCTCACGTGTGTGT	0.04 kcal/mol
GGGAGCACGTGAGCGT	0.16 kcal/mol
AAGTCCACGTGGGGGG	-0.21 kcal/mol
TATATCACGTGTATAG	0.08 kcal/mol
TGGTACACGTGCTGTT	-0.05 kcal/mol
CGAATCACGTGGGTTT	-0.01 kcal/mol
AGTGGCACGTGAGCGG	0.01 kcal/mol
AGGAGCACGTGAGGGG	0.14 kcal/mol
TGGTGCACGTGGTTTA	-0.08 kcal/mol
TAAGGCACGTGAGGTT	0.18 kcal/mol
GGATCCACGTGAGTTG	0.37 kcal/mol
TCTGACACGTGCGGGT	0.04 kcal/mol
CGGGACACGTGTGATG	0.08 kcal/mol
GATGTCACGTGGGTTA	0.17 kcal/mol
CTTTTCACGTGATTGG	0.4 kcal/mol
AGTGCCACGTGGGAAT	-0.13 kcal/mol
CGATGCACGTGTAATG	0.14 kcal/mol
TGTGTCACGTGACTAG	0.23 kcal/mol
AGTAGCACGTGTGTCG	-0.03 kcal/mol
TCTTTCACGTGGCTGT	0.26 kcal/mol
TATGGCACGTGGACAG	-0.07 kcal/mol

Sequence	relative binding free energy
AGGGTCACGTGTGAAT	0.25 kcal/mol
AGTGTCACGTGTAGCG	-0.06 kcal/mol
GGAAGCACGTGGTGGA	-0.13 kcal/mol
GGTTACACGTGCTAGG	0.06 kcal/mol
ATATGCACGTGGCGGT	-0.1 kcal/mol
TTTGCCACGTGAGTGT	0.17 kcal/mol
GTGAACACGTGTATGA	-0.04 kcal/mol
TGACTCACGTGTTGTA	0 kcal/mol
ATTGTCACGTGTTTTC	0.08 kcal/mol
CCTGGCACGTGGTTGG	-0.32 kcal/mol
AGGAACACGTGAGTTT	0.3 kcal/mol
ATCTACACGTGTGTAT	0.11 kcal/mol
AGAGGCACGTGCGCGT	-0.36 kcal/mol
AAAGTCACGTGTTTAT	0.17 kcal/mol
GTTTTCACGTGGGACG	0.28 kcal/mol
ACGGTCACGTGGTTTT	0.09 kcal/mol
ATTATCACGTGCAGTT	0.08 kcal/mol
TGCTTCACGTGAGAGT	0.27 kcal/mol
TTACTCACGTGTCAGT	0.34 kcal/mol
CTTCGCACGTGGGTGG	-0.17 kcal/mol
TGTATCACGTGTGAAG	0.17 kcal/mol
